# Substitutions are numbered along the chain they refer to; changes in the protein carry UniProt numbers. The list shows a part of the results.
# T1: RBFOX1 RRM RbFoxmut (Fox-RRM*) (Homo sapiens, UniProt Q9NWB1 109-208, R118D;E147R;N151S;E152T)
# T1 sequence: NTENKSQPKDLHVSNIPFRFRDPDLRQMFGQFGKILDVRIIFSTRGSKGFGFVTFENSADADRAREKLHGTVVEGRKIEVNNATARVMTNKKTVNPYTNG
# B1: CCCGUUG (DNA:RNA)
# RNA: GGGAGACCGGAAUUCAGAUUGUCCCCCGUUGUUAAAUCCCGUCGUAGCCACCA
# DNA 1: CAATCTGAATTCCGGTCTCCC
# DNA 2: TGGTGGCTACGACGGGATT
# B2: UACACGA (DNA:RNA)
# RNA: B1 RNA with C25U, C26A, G28A, U29C, U30G, G31A
# DNA 1: CAATCTGAATTCCGGTCTCCC
# DNA 2: TGGTGGCTACGACGGGATT
# B3: CACAAUA (DNA:RNA)
# RNA: B1 RNA with C26A, G28A, U29A, G31A
# DNA 1: CAATCTGAATTCCGGTCTCCC
# DNA 2: TGGTGGCTACGACGGGATT
# B4: GGUCACC (DNA:RNA)
# RNA: GGGAGACCGGAAUUCAGAUUGUCCGGUCACCUUAAAUCCCGUCGUAGCCACCA
# DNA 1: CAATCTGAATTCCGGTCTCCC
# DNA 2: TGGTGGCTACGACGGGATT
# B5: CGCCCAC (DNA:RNA)
# RNA: B4 RNA with G25C, U27C, A29C, C30A
# DNA 1: CAATCTGAATTCCGGTCTCCC
# DNA 2: TGGTGGCTACGACGGGATT
# B6: CCCAACC (DNA:RNA)
# RNA: B1 RNA with G28A, U29A, U30C, G31C
# DNA 1: CAATCTGAATTCCGGTCTCCC
# DNA 2: TGGTGGCTACGACGGGATT
# B7: GCAUCGC (DNA:RNA)
# RNA: B4 RNA with G26C, U27A, C28U, A29C, C30G
# DNA 1: CAATCTGAATTCCGGTCTCCC
# DNA 2: TGGTGGCTACGACGGGATT
# B8: GUGGCAU (DNA:RNA)
# RNA: B1 RNA with C25G, C26U, C27G, U29C, U30A, G31U
# DNA 1: CAATCTGAATTCCGGTCTCCC
# DNA 2: TGGTGGCTACGACGGGATT
# B9: UGAUCGA (DNA:RNA)
# RNA: B4 RNA with G25U, U27A, C28U, A29C, C30G, C31A
# DNA 1: CAATCTGAATTCCGGTCTCCC
# DNA 2: TGGTGGCTACGACGGGATT
# B10: GCCUAAA (DNA:RNA)
# RNA: B1 RNA with C25G, G28U, U29A, U30A, G31A
# DNA 1: CAATCTGAATTCCGGTCTCCC
# DNA 2: TGGTGGCTACGACGGGATT
# B11: UUUCGCC (DNA:RNA)
# RNA: B4 RNA with G25U, G26U, A29G
# DNA 1: CAATCTGAATTCCGGTCTCCC
# DNA 2: TGGTGGCTACGACGGGATT
# B12: UAGUAAA (DNA:RNA)
# RNA: B4 RNA with G25U, G26A, U27G, C28U, C30A, C31A
# DNA 1: CAATCTGAATTCCGGTCTCCC
# DNA 2: TGGTGGCTACGACGGGATT
# B13: AACCCCC (DNA:RNA)
# RNA: B4 RNA with G25A, G26A, U27C, A29C
# DNA 1: CAATCTGAATTCCGGTCTCCC
# DNA 2: TGGTGGCTACGACGGGATT
# B14: UUUCCAG (DNA:RNA)
# RNA: B4 RNA with G25U, G26U, A29C, C30A, C31G
# DNA 1: CAATCTGAATTCCGGTCTCCC
# DNA 2: TGGTGGCTACGACGGGATT
# B15: GCGGUAA (DNA:RNA)
# RNA: B1 RNA with C25G, C27G, U30A, G31A
# DNA 1: CAATCTGAATTCCGGTCTCCC
# DNA 2: TGGTGGCTACGACGGGATT
# B16: GCUAGCA (DNA:RNA)
# RNA: B4 RNA with G26C, C28A, A29G, C31A
# DNA 1: CAATCTGAATTCCGGTCTCCC
# DNA 2: TGGTGGCTACGACGGGATT
# B17: CCACUUG (DNA:RNA)
# RNA: B1 RNA with C27A, G28C
# DNA 1: CAATCTGAATTCCGGTCTCCC
# DNA 2: TGGTGGCTACGACGGGATT
# B18: GUAGGGU (DNA:RNA)
# RNA: B1 RNA with C25G, C26U, C27A, U29G, U30G, G31U
# DNA 1: CAATCTGAATTCCGGTCTCCC
# DNA 2: TGGTGGCTACGACGGGATT
# B19: GACAAUG (DNA:RNA)
# RNA: B1 RNA with C25G, C26A, G28A, U29A
# DNA 1: CAATCTGAATTCCGGTCTCCC
# DNA 2: TGGTGGCTACGACGGGATT
# B20: UUGGUGC (DNA:RNA)
# RNA: B1 RNA with C25U, C26U, C27G, U30G, G31C
# DNA 1: CAATCTGAATTCCGGTCTCCC
# DNA 2: TGGTGGCTACGACGGGATT
# B21: ACUCGCU (DNA:RNA)
# RNA: B4 RNA with G25A, G26C, A29G, C31U
# DNA 1: CAATCTGAATTCCGGTCTCCC
# DNA 2: TGGTGGCTACGACGGGATT
# B22: AUGCAGC (DNA:RNA)
# RNA: B4 RNA with G25A, G26U, U27G, C30G
# DNA 1: CAATCTGAATTCCGGTCTCCC
# DNA 2: TGGTGGCTACGACGGGATT
# B23: UUAGAUC (DNA:RNA)
# RNA: B1 RNA with C25U, C26U, C27A, U29A, G31C
# DNA 1: CAATCTGAATTCCGGTCTCCC
# DNA 2: TGGTGGCTACGACGGGATT
# B24: UCCAAUA (DNA:RNA)
# RNA: B1 RNA with C25U, G28A, U29A, G31A
# DNA 1: CAATCTGAATTCCGGTCTCCC
# DNA 2: TGGTGGCTACGACGGGATT
# B25: CUUAUAU (DNA:RNA)
# RNA: B1 RNA with C26U, C27U, G28A, U30A, G31U
# DNA 1: CAATCTGAATTCCGGTCTCCC
# DNA 2: TGGTGGCTACGACGGGATT
# B26: CGCGAUA (DNA:RNA)
# RNA: B1 RNA with C26G, U29A, G31A
# DNA 1: CAATCTGAATTCCGGTCTCCC
# DNA 2: TGGTGGCTACGACGGGATT
# B27: CCGAGGC (DNA:RNA)
# RNA: B1 RNA with C27G, G28A, U29G, U30G, G31C
# DNA 1: CAATCTGAATTCCGGTCTCCC
# DNA 2: TGGTGGCTACGACGGGATT
# B28: UGCUGAU (DNA:RNA)
# RNA: B1 RNA with C25U, C26G, G28U, U29G, U30A, G31U
# DNA 1: CAATCTGAATTCCGGTCTCCC
# DNA 2: TGGTGGCTACGACGGGATT
# B29: UCACGCA (DNA:RNA)
# RNA: B4 RNA with G25U, G26C, U27A, A29G, C31A
# DNA 1: CAATCTGAATTCCGGTCTCCC
# DNA 2: TGGTGGCTACGACGGGATT
# B30: AGCGUUC (DNA:RNA)
# RNA: B1 RNA with C25A, C26G, G31C
# DNA 1: CAATCTGAATTCCGGTCTCCC
# DNA 2: TGGTGGCTACGACGGGATT
# B31: CGGGGAA (DNA:RNA)
# RNA: B1 RNA with C26G, C27G, U29G, U30A, G31A
# DNA 1: CAATCTGAATTCCGGTCTCCC
# DNA 2: TGGTGGCTACGACGGGATT
# Molecular target: T1, RBFOX1 RRM RbFoxmut (Fox-RRM*)
# Test: EMSA; HiTS-Eq, 1 nM pool, 10 min; buffer printed only for the single-RNA assays: 10 mM Tris pH 7.5, 150 mM NaCl, 3.4 mM EDTA, 0.001% NP-40, 30 C
# Settings: tags: His6 N-terminal (pET28a); label: 5' 32P
# Procedure, shortened: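 Purified wild-type or mutant RbFox RRM at increasing concentrations was equilibrated with 1 nM of 5′-radiolabelled RNA carrying 7 randomized nucleotides for 10 min in 50 µL. Unbound RNA was separated by 8% native PAGE and sequenced. Relative association constants came from read-count changes of each RNA species compared with the control reaction, normalised to the cognate motif.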
row,Binder,binding signal
1,B1,0.0873 KA relative to UGCAUGU
2,B2,0.0611 KA relative to UGCAUGU
3,B3,0.084 KA relative to UGCAUGU
4,B4,0.0668 KA relative to UGCAUGU
5,B5,0.0709 KA relative to UGCAUGU
6,B6,0.0535 KA relative to UGCAUGU
7,B7,0.443 KA relative to UGCAUGU
8,B8,0.123 KA relative to UGCAUGU
9,B9,0.148 KA relative to UGCAUGU
10,B10,0.0698 KA relative to UGCAUGU
11,B11,0.0936 KA relative to UGCAUGU
12,B12,0.117 KA relative to UGCAUGU
13,B13,0.0584 KA relative to UGCAUGU
14,B14,0.0923 KA relative to UGCAUGU
15,B15,0.122 KA relative to UGCAUGU
16,B16,0.173 KA relative to UGCAUGU

row,Binder,binding signal
1,B17,0.107 KA relative to UGCAUGU
2,B18,0.0956 KA relative to UGCAUGU
3,B19,0.035 KA relative to UGCAUGU
4,B20,0.118 KA relative to UGCAUGU
5,B21,0.0919 KA relative to UGCAUGU
6,B22,0.106 KA relative to UGCAUGU
7,B23,0.0647 KA relative to UGCAUGU
8,B24,0.0726 KA relative to UGCAUGU
9,B25,0.113 KA relative to UGCAUGU
10,B26,0.121 KA relative to UGCAUGU
11,B27,0.0957 KA relative to UGCAUGU
12,B28,0.0892 KA relative to UGCAUGU
13,B29,0.135 KA relative to UGCAUGU
14,B30,0.0948 KA relative to UGCAUGU
15,B31,0.107 KA relative to UGCAUGU

# — PMC9911399, “Two distinct binding modes provide the RNA-binding protein RbFox with extraordinary sequence specificity”
